In PubChem BioAssay AID1347165 (National Center for Advancing Translational Sciences (NCATS), 2019):
Among all 220,000 compounds or so, about 5,700 (2.6%) were called active. The shares of active, inactive and inconclusive entries below differ from those in the screen. The call rests on the fitted dose curve; in most records, active means well fitted inhibition curve with a large enough effect; inconclusive means small, poorly fitted or top-dose-only effect; inactive means no such curve, though single readings can be large or run the other way. Potencies beside an inconclusive call are fits to weak or partial responses and may not hold up.
Further: nearly all actives have a fitted effect of over 70% in size.
Potency means the concentration at half of the fitted maximal effect; tags describe the fitted curve by direction and shape.
Wherever activity change, negative = inhibition is given: 0% is about no effect.

These compounds were tested against Lysine-specific demethylase 5B (Homo sapiens) (UniProt Q9UGL1) (assay: Primary screen for KDM5B Histone Demethylases FDH-coupled qHTS). Details: FDH-coupled NADH fluorescence (FDH is formaldehyde dehydrogenase); activity change, negative = inhibition: at 57.7 µM (top of the series) unless noted.
Chain of UniProt Q9UGL1 (Q9UGL1 whole entry, looked up): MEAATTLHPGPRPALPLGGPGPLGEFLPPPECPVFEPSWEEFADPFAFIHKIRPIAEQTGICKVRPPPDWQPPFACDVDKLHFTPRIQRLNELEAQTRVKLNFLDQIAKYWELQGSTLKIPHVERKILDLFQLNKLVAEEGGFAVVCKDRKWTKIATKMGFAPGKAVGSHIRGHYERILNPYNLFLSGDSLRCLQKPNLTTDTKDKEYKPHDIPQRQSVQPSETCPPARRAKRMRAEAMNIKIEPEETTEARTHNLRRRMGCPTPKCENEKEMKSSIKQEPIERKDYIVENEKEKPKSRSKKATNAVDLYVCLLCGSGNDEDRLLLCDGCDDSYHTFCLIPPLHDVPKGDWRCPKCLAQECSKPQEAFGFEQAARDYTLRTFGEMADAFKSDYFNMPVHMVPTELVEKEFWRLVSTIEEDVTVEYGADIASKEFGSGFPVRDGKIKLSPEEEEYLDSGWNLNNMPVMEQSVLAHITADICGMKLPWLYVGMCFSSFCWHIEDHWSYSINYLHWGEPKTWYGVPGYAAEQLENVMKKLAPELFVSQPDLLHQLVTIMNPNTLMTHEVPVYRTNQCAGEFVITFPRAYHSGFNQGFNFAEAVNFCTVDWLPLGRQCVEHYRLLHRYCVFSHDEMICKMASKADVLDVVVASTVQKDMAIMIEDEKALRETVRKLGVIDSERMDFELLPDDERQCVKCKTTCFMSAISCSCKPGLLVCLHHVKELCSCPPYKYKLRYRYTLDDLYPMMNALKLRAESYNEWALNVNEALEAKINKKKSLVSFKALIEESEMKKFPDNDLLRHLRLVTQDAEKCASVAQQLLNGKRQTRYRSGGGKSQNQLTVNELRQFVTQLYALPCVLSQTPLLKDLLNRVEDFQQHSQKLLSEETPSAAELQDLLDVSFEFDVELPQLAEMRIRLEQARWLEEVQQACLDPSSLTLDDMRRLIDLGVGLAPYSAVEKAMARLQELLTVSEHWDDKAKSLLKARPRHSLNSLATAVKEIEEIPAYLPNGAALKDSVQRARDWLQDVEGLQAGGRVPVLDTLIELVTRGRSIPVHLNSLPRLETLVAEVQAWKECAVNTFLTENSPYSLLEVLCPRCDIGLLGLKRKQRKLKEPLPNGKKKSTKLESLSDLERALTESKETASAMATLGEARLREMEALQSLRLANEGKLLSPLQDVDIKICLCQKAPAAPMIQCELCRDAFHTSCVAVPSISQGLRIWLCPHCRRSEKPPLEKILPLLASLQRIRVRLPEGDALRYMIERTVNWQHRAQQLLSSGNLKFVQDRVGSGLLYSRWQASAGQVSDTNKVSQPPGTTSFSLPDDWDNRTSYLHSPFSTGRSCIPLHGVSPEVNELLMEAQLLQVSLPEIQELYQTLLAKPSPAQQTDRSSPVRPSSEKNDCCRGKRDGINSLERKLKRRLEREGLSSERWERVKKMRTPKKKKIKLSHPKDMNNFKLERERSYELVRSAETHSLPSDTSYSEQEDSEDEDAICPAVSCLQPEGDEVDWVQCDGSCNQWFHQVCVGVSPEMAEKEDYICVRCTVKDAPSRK
In short: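 Compound dilutions met 200 nM (final) KDM5BΔAP for 10 min at room temperature before substrate addition. The substrate mix held 12.5 µM H3K4me3 with cofactors 25 µM α-ketoglutarate and 50 µM Fe²⁺. NADH signal gain over 30 min defined activity.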
In the case of `O=C(Cc1cccc(F)c1)NCc1nnc2ccc(-c3ccc(Cl)cc3)nn12`, the Potency is reported as active: 25.1 µM.
For `Cc1cccc(CN2CCN(Cc3cc(=O)oc4c(C)c(O)ccc34)CC2)c1`, the Potency was inconclusive: 25.1 µM [inhibitor, partial curve, poor fit].
For `O=C(Nc1ccc(Br)cc1F)c1ccc2nc(CCc3ccccc3)oc2c1`, the activity change, negative = inhibition was inconclusive: -32.2% [inhibitor].
With `COC(=O)C1CCN(Cc2nc3c(Br)cc(Br)cc3c(=O)[nH]2)CC1` the “activity change, negative = inhibition” value was inactive: -1.78%.
For `CCC(=O)N1CCN(c2oc(/C=C/c3ccc(OC)cc3)nc2C#N)CC1`, the Potency was inconclusive: 10 µM [inhibitor, partial curve, poor fit].
In the case of `Cc1ccc(-c2ccc3nnc(CNC(=O)c4ccc(C#N)cc4)n3n2)cc1C`, the Potency is reported as inconclusive: 31.6 µM [inhibitor, partial curve, poor fit].
In the case of `Cc1ccc(-c2cc(C(=O)N3CCCC3)c3ccccc3n2)s1`, the Potency is reported as inconclusive: 28.2 µM [inhibitor, partial curve, poor fit].
For `Oc1ccccc1CN1CCNc2cc(Nc3cccnc3)ncc2C1`, the Potency was active: 35.5 µM.
`CCC(=O)Nc1cc(-c2nc3cc(C)cc(C)c3o2)ccc1C` was tested, and the Potency was inconclusive: 2.24 µM [inhibitor, full curve, poor fit].
`O=[S+]([O-])(NC1CCN(c2nc3ncccc3o2)CC1)c1cccc(C(F)(F)F)c1` was tested, and the Potency was inconclusive: 20 µM [inhibitor, partial curve, poor fit].
In the case of `Cc1ccccc1OCCC(=O)OCC(=O)Nc1ccc(C(N)=O)cc1`, the “activity change, negative = inhibition” value is reported as inactive: 28.8%.
In the case of `CCCC(=O)n1ccn(S(=O)(=O)c2ccc(C)cc2)c1=O`, the “activity change, negative = inhibition” value is reported as inactive: 9.13%.
With `Cc1cn2nc(C(=O)N3CCC(NC(=O)c4ccc(F)cc4)CC3)cc2c(=O)[nH]1` the “activity change, negative = inhibition” value was inactive: -22.6%.
For `O=C(NC1CCCCCCC1)c1nn(Cc2ccccc2)c(=O)c2ccccc12`, the “activity change, negative = inhibition” value was inactive: 19.9%.
`CC(NC(=O)CSc1nc2ccccc2o1)c1ccccc1` (stereo not given) was tested, and the “activity change, negative = inhibition” value was inactive: 7.28%.
`CCOC(=O)C1=C(C)N=C2SC=C(CC(=O)NCc3ccco3)N2C1c1cccc([N+](=O)[O-])c1` (stereo not given) was tested, and the Potency was inconclusive: 17.8 µM [inhibitor, single point].
In the case of `CCc1nnc(NC(=O)c2ccc3ncsc3c2)s1`, the Potency is reported as inconclusive: 28.2 µM [inhibitor, single point].
With `CC1N=C2c3ccccc3N=C(SCC(=O)NCc3ccc(Cl)cc3)N2C1=O` (stereo not given) the Potency was inconclusive: 31.6 µM [inhibitor, partial curve, poor fit].
For `COc1ccc(-c2cc3c(ccn3C)c(C(=O)NCCc3cnc[nH]3)n2)cn1`, the Potency was active: 35.5 µM.
With `CCN(CC)c1nn2c(=O)c(C(=O)NCc3cccc(OC)c3OC)cnc2s1` the Potency was inconclusive: 31.6 µM [inhibitor, partial curve, poor fit].
In the case of `CN1c2cc(C(=O)NCc3cccc(Cl)c3)ccc2C(=O)N2CCCC21` (stereo not given), the Potency is reported as inconclusive: 22.4 µM [inhibitor, partial curve, poor fit].
In the case of `CCc1nnc(NC(=O)COc2ccc3c(C)cc(=O)oc3c2)s1`, the Potency is reported as inconclusive: 22.4 µM [inhibitor, partial curve, poor fit].
For `CCC(=O)N1N=C(c2ccsc2)CC1c1ccc2nccnc2c1` (stereo not given), the “activity change, negative = inhibition” value was inactive: 8.81%.
For `COc1cc(NC(=O)CSc2nc3nc(C)c(Cc4ccccc4)c(C)n3n2)cc(OC)c1`, the Potency was inconclusive: 44.7 µM [inhibitor, single point].
In the case of `COc1ccccc1N1CCN(C[C@@H]2C=C(C)[C@H](Cc3nnc(-c4cncn4C)o3)C[C@H]2C(C)C)CC1`, the “activity change, negative = inhibition” value is reported as inactive: -20.3%.
For `CC(C)NC(=O)CSc1nc(NC2CC2)c2ccccc2n1`, the “activity change, negative = inhibition” value was inactive: -13.1%.
With `CCc1ccn2cc(-c3ccc4c(c3)OCO4)nc2c1` the Potency was inconclusive: 39.8 µM [inhibitor, single point].
For `COc1cncc(Nc2cnc3ccc(-c4ccccc4)nn23)c1`, the Potency was inconclusive: 28.2 µM [inhibitor, partial curve, poor fit].
With `CCSc1nc(=S)cc(C)[nH]1` the Potency was inconclusive: 20 µM [inhibitor, single point].
With `C[C@@H](NC(=O)C1=C[C@@H](NS(=O)(=O)c2cccs2)[C@@H](O)[C@H](O)C1)C(N)=O` the Potency was inconclusive: 25.1 µM [inhibitor, partial curve, poor fit].
In the case of `CCC(=O)N1CCc2cc(S(=O)(=O)CCC(=O)NCc3ccc(F)cc3)ccc21`, the activity change, negative = inhibition is reported as inconclusive: -33.1% [inhibitor].
With `O=C(O)CNCc1cccc2ccccc12` the “activity change, negative = inhibition” value was inactive: -0.57%.
In the case of `COc1ccc2c(CN3CCCCC3)cc(=O)oc2c1`, the Potency is reported as inconclusive: 28.2 µM [inhibitor, partial curve, poor fit].
For `Cc1noc(C)c1[S+](=O)([O-])N1CCC(c2nnc3n2C(C(=O)O)CC3)CC1` (stereo not given), the Potency was inconclusive: 63.1 µM [inhibitor, partial curve, poor fit].
`Cc1ccc(-n2nc3c(=O)n(C(C)C(=O)O)nc(C)c3c2C)cc1` (stereo not given) was tested, and the activity change, negative = inhibition was inconclusive: -41.1% [inhibitor].
`N#C/C(=C/c1ccsc1)c1ccc2ccccc2n1` was tested, and the “activity change, negative = inhibition” value was inactive: -19.3%.
`COc1ccc(Cn2c(C(=O)O)c(CNCCc3ccccc3Cl)c3ccc(C)cc32)cc1` was tested, and the Potency was inconclusive: 25.1 µM [inhibitor, single point].
In the case of `Cc1cc(C)cc(OCC(=O)Nc2cccc(-c3nc4ccccc4[nH]3)c2)c1`, the Potency is reported as inconclusive: 7.08 µM [inhibitor, partial curve, poor fit].
With `COc1ccc(CNC(=O)Cc2c(C)c3ccc(OC)c(OC)c3oc2=O)c(OC)c1` the Potency was inconclusive: 25.1 µM [inhibitor, partial curve, poor fit].
With `CCN(CC)CCOC(=O)c1cccc2c1-c1ccccc1C2O` (stereo not given) the Potency was inconclusive: 28.2 µM [inhibitor, partial curve, poor fit].
With `CCOC(=O)c1cc2c(=O)n3ccccc3nc2n(Cc2ccco2)c1=NC(=O)c1ccccc1OC` the Potency was inconclusive: 15.8 µM [inhibitor, partial curve, poor fit].
`Cc1ccc(NC(=O)C2CCCN(c3nnc(C)c4c(C)n(-c5ccccc5)nc34)C2)cc1Cl` (stereo not given) was tested, and the Potency was inconclusive: 17.8 µM [inhibitor, partial curve, poor fit].
With `O=C(Cc1coc2cc3c(cc12)CCC3)OCCOc1ccccc1` the “activity change, negative = inhibition” value was inactive: 14.2%.
For `CCc1cccc(C)c1Nc1c(-c2ccc(N3CCOCC3)cc2)nc2ncccn12`, the Potency was inconclusive: 15.8 µM [inhibitor, partial curve, poor fit].
`CC(=O)NC1(C)CCN(Cc2ccc(-c3ccccc3Oc3ccccc3)cc2)C1` (stereo not given) was tested, and the Potency was inconclusive: 10 µM [inhibitor, partial curve, poor fit].
In the case of `COc1ccc(NC(=O)c2c(-c3ccc(OC)cc3)oc3ccc(OC)cc23)cc1`, the “activity change, negative = inhibition” value is reported as inactive: -23.4%.
For `NCc1cccc(-c2ccc(O)cc2)c1`, the Potency was inconclusive: 89.1 µM [inhibitor, partial curve].
With `Cc1cccn2c(=O)c3cc(C(=O)NC4CCCCCC4)sc3nc12` the Potency was inconclusive: 10 µM [inhibitor, partial curve, poor fit].
With `O=C(O)c1ccnc(-c2ccnc(N3CCCOC(CN4CCCC4)C3)n2)c1` (stereo not given) the Potency was inconclusive: 15.8 µM [inhibitor, partial curve, poor fit].
For `C=CCNC(c1ccccc1)c1ccccc1`, the Potency was inconclusive: 39.8 µM [inhibitor, single point].
For `Cc1ccc(CN2CCCOCCNC(=O)CC2)o1`, the Potency was inconclusive: 12.6 µM [inhibitor, partial curve, poor fit].
In the case of `O=C(c1ccccc1F)N1CCC2(CC1)C(=O)NN=C2C1CC1`, the “activity change, negative = inhibition” value is reported as inactive: 7.64% [at 86.2 µM].
For `CCCOCCNC(=O)c1c(C)noc1-c1ccc(OC)cc1`, the Potency was inconclusive: 22.4 µM [inhibitor, partial curve, poor fit].
In the case of `N#Cc1cccnc1N1CCN(C(C(=O)O)c2c[nH]c3cc(Cl)ccc23)CC1` (stereo not given), the Potency is reported as inconclusive: 22.4 µM [inhibitor, single point].
For `CC(C)NC[C@H]1O[C@@H](CO)[C@@H](O)[C@H]1N1CCN(c2ncccn2)CC1`, the Potency was inconclusive: 25.1 µM [inhibitor, partial curve, poor fit].
`CCOC(=O)C1CCCN(C(=O)c2cc3c(=O)n(C)c4ccccc4c3s2)C1` (stereo not given) was tested, and the Potency was inconclusive: 28.2 µM [inhibitor, partial curve, poor fit].
In the case of `O=C(OCc1cc(=O)oc2cc(O)ccc12)c1ccc(F)cc1`, the Potency is reported as inconclusive: 28.2 µM [inhibitor, partial curve, poor fit].
In the case of `CCCCc1cc(=O)oc2cc(C)cc(OCC(=O)NCc3ccccn3)c12`, the Potency is reported as inconclusive: 22.4 µM [inhibitor, partial curve, poor fit].
In the case of `C[S+](=O)([O-])c1cccc(NC(=O)Cc2c[nH]c3ncc(-c4cccnc4)cc23)c1`, the “activity change, negative = inhibition” value is reported as inactive: 6.97% [at 86.2 µM].
In the case of `COc1ccc(-c2c(C)c3cc(OS(=O)(=O)c4ccc(C)cc4)ccc3oc2=O)cc1`, the Potency is reported as inconclusive: 20 µM [inhibitor, partial curve, poor fit].
For `CCc1noc(-c2cccn3c(CNC(=O)Cc4cccc(OC)c4)nnc23)n1`, the Potency was inconclusive: 28.2 µM [inhibitor, partial curve, poor fit].
For `O=C(CCc1ccco1)OCC(=O)c1ccc2c(c1)OCO2`, the Potency was inconclusive: 39.8 µM [inhibitor, single point].
`O=S(=O)(NCc1ccccc1)c1ccc2[nH]c3c(c2c1)CCCCC3` was tested, and the Potency was inconclusive: 15.8 µM [inhibitor, partial curve, poor fit].
With `O=C(CSc1nc2ccccc2o1)NCC(=O)N1CCCC1` the “activity change, negative = inhibition” value was inactive: 5.51%.
With `COc1ccccc1C(=O)Oc1ccc(F)cc1C(=O)/C=C/c1ccc(C)cc1` the “activity change, negative = inhibition” value was inactive: -26.2%.
